# Where a SMILES comes first, the peptide text is derived from it.
# Test system: C.albicans UP10 cells
# Conditions: read-out: IC50 (mol/l); KM and C-terminal truncation derivatives; triplicate, nonlinear regression
compound,measurement,value
CSCC[C@H](NC(=O)[C@@H](NC(=O)[C@@H](NC(=O)[C@H](CCCCN)NC(=O)[C@H](C)N)C(C)C)[C@@H](C)O)C(=O)N[C@H](C(=O)N[C@@H](CS)C(=O)N[C@@H](CO)C(=O)N[C@@H](C)C(=O)N[C@@H](CO)C(N)=O)[C@@H](C)O [KM] (H-AKVTMTCSAS-NH2),IC50,56 nM

# — US7722876B2 (priority 2002, dated 2010)
